The other results are listed elsewhere or left out. Values come from read counts of a selection and are noisy. Each score is taken over the longer molecules that contain the sequence shown.
What was measured:
Assay in all cases: 6-mer SELEX enrichment z-score vs GST control; IMP3 is the RNA-binding protein IGF2BP3; higher = more enriched by binding
IMP3 KH1-4 = details: construct: KH1-4 (164-579); SELEX round: R4
Method: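 SELEX-seq with GST-tagged IMP3 KH1-4 (Pro164-Lys579) and an N40 RNA pool, round 4. 6-mer z-score of sequence-tag enrichment normalised to the corresponding GST SELEX round; RNA k-mers written as DNA (T for U).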

IMP3 RRM1-2 = details: construct: RRM1-2 (1-163); SELEX round: R2
Sequence of IMP3 RRM1-2 (chain, as listed by the source): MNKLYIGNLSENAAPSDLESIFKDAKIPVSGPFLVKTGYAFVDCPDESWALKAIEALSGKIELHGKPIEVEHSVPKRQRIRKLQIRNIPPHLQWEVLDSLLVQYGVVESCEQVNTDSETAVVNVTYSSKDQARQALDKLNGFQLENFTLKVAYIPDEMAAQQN
Method: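 SELEX-seq with GST-tagged IMP3 RRM1-2 (Met1-Asn163) and an N40 RNA pool, round 2. 6-mer enrichment z-score normalised to GST SELEX. RNA written as DNA (T = U).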

IMP3 KH1-2 = details: construct: KH1-2 (164-376); SELEX round: R4
Sequence of IMP3 KH1-2 (chain, as listed by the source): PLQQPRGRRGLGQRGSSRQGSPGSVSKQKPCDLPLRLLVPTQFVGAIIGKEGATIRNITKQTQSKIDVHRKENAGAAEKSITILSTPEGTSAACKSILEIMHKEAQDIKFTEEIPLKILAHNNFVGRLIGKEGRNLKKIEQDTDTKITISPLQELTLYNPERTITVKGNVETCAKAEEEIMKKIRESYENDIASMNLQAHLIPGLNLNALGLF
Method: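 SELEX-seq with GST-tagged IMP3 KH1-2 (Pro164-Phe376) and an N40 RNA pool, round 4 (stringent 300/600 mM KCl washes). 6-mer z-score of sequence-tag enrichment normalised to the corresponding GST SELEX round; RNA k-mers written as DNA (T for U).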

IMP3 KH3-4 = details: construct: KH3-4 (377-579); SELEX round: R4
Sequence of IMP3 KH3-4 (chain, as listed by the source): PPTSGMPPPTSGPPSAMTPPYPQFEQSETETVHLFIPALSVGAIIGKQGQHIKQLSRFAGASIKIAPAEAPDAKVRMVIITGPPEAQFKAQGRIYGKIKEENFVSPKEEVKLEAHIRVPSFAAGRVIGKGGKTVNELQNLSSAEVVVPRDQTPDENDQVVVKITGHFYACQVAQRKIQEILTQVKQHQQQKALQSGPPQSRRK
Method: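 SELEX-seq with GST-tagged IMP3 KH3-4 (Pro377-Lys579) and an N40 RNA pool, round 4. 6-mer z-score of sequence-tag enrichment normalised to the corresponding GST SELEX round; RNA k-mers written as DNA (T for U).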

IMP3 full-length = IMP3 full-length (UniProt O00425); details: construct: FL IMP3 (1-579); SELEX round: R4
Sequence of UniProt O00425 (O00425 whole entry): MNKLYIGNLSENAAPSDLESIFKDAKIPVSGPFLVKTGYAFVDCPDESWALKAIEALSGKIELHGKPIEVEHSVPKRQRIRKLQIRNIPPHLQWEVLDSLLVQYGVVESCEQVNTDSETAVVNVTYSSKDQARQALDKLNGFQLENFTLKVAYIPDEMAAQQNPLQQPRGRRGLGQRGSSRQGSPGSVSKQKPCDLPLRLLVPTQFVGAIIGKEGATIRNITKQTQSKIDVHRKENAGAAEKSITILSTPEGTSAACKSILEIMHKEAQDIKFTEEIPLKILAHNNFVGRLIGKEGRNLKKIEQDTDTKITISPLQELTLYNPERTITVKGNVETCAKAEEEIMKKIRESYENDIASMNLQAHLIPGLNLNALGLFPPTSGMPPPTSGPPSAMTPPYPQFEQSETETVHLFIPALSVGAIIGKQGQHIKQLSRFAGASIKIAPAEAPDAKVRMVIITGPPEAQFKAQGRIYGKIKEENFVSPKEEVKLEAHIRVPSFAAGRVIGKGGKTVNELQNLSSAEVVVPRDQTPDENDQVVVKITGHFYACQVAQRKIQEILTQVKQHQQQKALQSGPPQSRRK
Method: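 SELEX-seq with GST-tagged full-length IMP3 and an N40 RNA pool, round 4. Each 6-mer is scored as an enrichment z-score of sequence tags containing it, normalised to the matching GST SELEX round. RNA written as DNA (T = U).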

Sequence of IMP3 KH1-4 (chain, as listed by the source): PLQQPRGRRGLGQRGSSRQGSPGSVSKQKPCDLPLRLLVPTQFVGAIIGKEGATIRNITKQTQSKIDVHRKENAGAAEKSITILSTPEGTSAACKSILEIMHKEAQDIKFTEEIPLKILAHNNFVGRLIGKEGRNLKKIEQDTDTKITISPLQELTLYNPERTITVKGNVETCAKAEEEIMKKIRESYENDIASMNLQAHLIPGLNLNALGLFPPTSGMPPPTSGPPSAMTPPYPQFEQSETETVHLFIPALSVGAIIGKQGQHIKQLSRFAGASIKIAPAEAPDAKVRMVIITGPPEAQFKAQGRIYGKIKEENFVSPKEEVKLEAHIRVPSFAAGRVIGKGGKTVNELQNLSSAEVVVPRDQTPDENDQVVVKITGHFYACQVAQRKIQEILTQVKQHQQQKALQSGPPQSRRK

Sequence | 6-mer SELEX enrichment z-score (IMP3 KH1-4) | 6-mer SELEX enrichment z-score (IMP3 RRM1-2) | 6-mer SELEX enrichment z-score (IMP3 KH1-2) | 6-mer SELEX enrichment z-score (IMP3 KH3-4) | 6-mer SELEX enrichment z-score (IMP3 full-length)
TCAGAG | -0.612 | 0.584 | -0.541 | -0.453 | –
TCACGT | -0.231 | 0.483 | -0.312 | -0.286 | –
TTCCCT | 0.316 | 0.017 | 0.171 | -0.134 | –
CTAACG | -0.829 | -0.659 | -0.887 | -0.873 | –
CGAGAC | -2.09 | -1.01 | -1.89 | -1.93 | –
CAGTCT | -0.003 | 0.578 | -0.022 | -0.113 | –
ATAGAT | 1.54 | -0.212 | 1.27 | 2.06 | –
CTGACG | -1.21 | -0.598 | -1.08 | -1.19 | –
TGTCTG | -0.062 | 0.239 | -0.066 | -0.025 | –
ACGTTC | -0.359 | -0.025 | -0.468 | -0.502 | –
CTAGCA | -0.033 | 0.287 | -0.06 | -0.163 | –
CGCCGG | -0.13 | -0.271 | 0.046 | -0.282 | –
CCCATC | -0.599 | 0.435 | -0.458 | -1.18 | –
GTGCGC | -0.006 | 0.077 | 0.046 | -0.094 | –
TAGAGC | -2.09 | -0.052 | -1.91 | -1.71 | –
TTAGAA | 0.589 | -0.473 | 0.38 | 1.22 | –
CATCAA | 1.01 | 2.32 | 0.958 | 0.372 | –
TGATAT | 1.16 | -0.107 | 0.918 | 1.55 | –
TCTTGT | -0.245 | 0.524 | -0.163 | -0.078 | –
TTAGGA | 0.566 | 0.093 | 0.342 | 0.753 | –
CGATTA | 0.387 | -0.543 | 0.313 | 0.591 | –
ACAGAT | 1.39 | 0.268 | 1.52 | 1.55 | –

Sequence | 6-mer SELEX enrichment z-score (IMP3 KH1-4) | 6-mer SELEX enrichment z-score (IMP3 RRM1-2) | 6-mer SELEX enrichment z-score (IMP3 KH1-2) | 6-mer SELEX enrichment z-score (IMP3 KH3-4) | 6-mer SELEX enrichment z-score (IMP3 full-length)
ACCGTA | -0.967 | -0.767 | -0.782 | -1.08 | –
TTTTTG | 0.345 | 0.32 | 0.307 | 0.683 | –
CATGAA | 1.34 | 0.088 | 1.09 | 1.41 | –
TCTTCA | 0.594 | 0.883 | 0.694 | 0.395 | –
ACCCAG | -2.07 | -0.966 | -2 | -2.38 | –
CCGCAA | -0.388 | -0.345 | -0.093 | -0.784 | –
GGCCGG | 0.587 | -0.179 | 0.792 | 0.494 | –
CATCAT | 2.04 | 2.65 | 1.76 | 1.27 | –
TCTAAC | 0.01 | -0.091 | -0.043 | -0.163 | –
CGTAAG | -1.04 | -0.386 | -0.991 | -0.831 | –
CACGGG | -0.421 | 0.083 | -0.194 | -0.476 | –
TCGTCT | -0.15 | 0.493 | -0.062 | 0.084 | –
TGTCTT | -0.128 | 0.477 | -0.054 | 0.054 | –
CGTGTC | -0.71 | 0.045 | -0.639 | -0.67 | –
AGATCG | 0.087 | -0.427 | -0.129 | 0.201 | –
CGGGCT | -0.574 | 0.202 | -0.406 | -0.295 | –
TGGGAT | 0.348 | 0.233 | 0.333 | 0.501 | –
ACAACC | -0.867 | 0.506 | -0.297 | -1.67 | –
TTGATG | 0.442 | -0.111 | 0.193 | 0.599 | –
AACTAG | -0.03 | -0.598 | -0.199 | 0.167 | –
AACCCC | -1.17 | -1.56 | -0.95 | -2.22 | –
GGAAAC | -0.719 | -1.2 | -0.797 | -0.619 | –

Sequence | 6-mer SELEX enrichment z-score (IMP3 KH1-4) | 6-mer SELEX enrichment z-score (IMP3 RRM1-2) | 6-mer SELEX enrichment z-score (IMP3 KH1-2) | 6-mer SELEX enrichment z-score (IMP3 KH3-4) | 6-mer SELEX enrichment z-score (IMP3 full-length)
CCTCGG | -0.662 | 0.118 | -0.54 | -0.682 | –
TCAGTT | 0.515 | 0.75 | 0.429 | 0.442 | –
AGAGGA | 1.43 | -0.636 | 1.18 | 1.42 | –
CACGAT | 0.522 | 0.017 | 0.391 | 0.343 | –
CTACCC | -1.02 | -0.606 | -1.1 | -1.53 | –
CATGTC | 0.57 | 0.833 | 0.232 | 0.126 | –
AGAGTT | 0.12 | 0.055 | 0.047 | 0.264 | –
TAATGC | 0.535 | -0.237 | 0.399 | 0.593 | –
TATCGG | 0.174 | 0.21 | 0.078 | 0.263 | –
CTGAGC | -3.14 | -0.254 | -2.97 | -2.91 | –
TACAAA | 0.708 | -0.05 | 1.06 | 1.05 | –
TGTATA | 0.879 | -0.023 | 0.612 | 1.19 | –
AGATTA | 1.18 | -0.432 | 0.913 | 1.79 | –
TAACAG | 0.732 | 0.018 | 0.89 | 1.04 | –
CAACGA | -1.69 | -0.914 | -1.8 | -1.77 | –
TTCAAG | -0.074 | 0.519 | -0.142 | 0.068 | –
CGTAAA | -1.59 | -1.18 | -1.54 | -1.34 | –
ACTCAT | 0.081 | 1.47 | 0.156 | -0.143 | –
CGATAT | 0.57 | – | 0.363 | 0.623 | -0.115
CCTCCC | -0.477 | – | -0.211 | – | -1.06
TGTTGA | -0.292 | – | -0.327 | -0.14 | -0.443
CAGTCA | 1.4 | – | 0.915 | 0.638 | 1.65

— the supplement of paper PMC6531468
